# Measurements reported in article PMC12136788.
# The other results are listed elsewhere or left out.
# T1: UNK ZnF1-3 (human, UniProt Q9C0B0 31-174)
# T1 sequence: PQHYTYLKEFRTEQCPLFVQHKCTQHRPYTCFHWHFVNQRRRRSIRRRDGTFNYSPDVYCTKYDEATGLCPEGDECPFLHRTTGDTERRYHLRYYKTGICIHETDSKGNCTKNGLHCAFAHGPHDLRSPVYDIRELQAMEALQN
# B1: chr3:123074269:123074270:-_ENSMUSG00000028114_ENSMUST00000029759|perfect_dup|motif|central (ssRNA)
# RNA: GGGAGUUCUACAGUCCGACGAUCGCGUCUUCUACCAAGACAAAAAUGUUCUAUUAUAUGAAAAAUUUCUACUGGUUUUUCGGUAUUGCCAAUCUCAGGUUCUUCUGUGAUAAUUAAGUCAAUGUCAACAUUAGCAUGAAUGAACAACAGAGGAUUGAGCAUCA
# B2: chr22:19452774:19452775:-_ENSG00000070010_ENST00000399523|hu_hu|hu_hu_hu_mus_False|48_78 (ssRNA)
# RNA: GGGAGUUCUACAGUCCGACGAUCCUUCUCAUUGUAGUUGAUAGCAAUCACAUCUCCGGUGGUCAGACAGGCGAAGUUUCUCAAUGCGUUUUCUAAUACCGCUUUAGGGUUGGUAAUAUCCAGGAAGUCUGGGCUCUGAGGCUGCAACAGAGGAUUGAGCAUCA
# B3: chr7:878492:878493:+_ENSG00000164828_ENST00000456758|hu_hu|FALSE|FALSE (ssRNA)
# RNA: GGGAGUUCUACAGUCCGACGAUCGUCGGCACCCACAGCCUCACCAUCCCCCAGGGUGCAUGCUGUCGUGGCCAGGCGCAAACUACGGCGGGACAUCCGUGGAGAAUCAAAUACAGGGUCCAAUUUGUGCUCCGUCUCAAAAUCCAACAGAGGAUUGAGCAUCA
# B4: chr1:66463027:66463028:+_ENSMUSG00000015222_ENSMUST00000114013|mus_mus|mus_mus_mus_hu_True|18_28 (ssRNA)
# RNA: GGGAGUUCUACAGUCCGACGAUCUUUUCUUUCAGGAGUGGAAAUUCUGCCUCUCCCGGUUUUAAAAGGCUUUUCUUUUCUAUGUUUCUCAAGAGAUGAUCUCCGAGCAUCCUUCUCAGCUCUCUCCUCUUUAGGAAUAGUUUCCAACAGAGGAUUGAGCAUCA
# B5: chr4:148551591:148551592:-_ENSMUSG00000063077_ENSMUST00000060537|mus_hu|mus_mus_mus_hu_False|18_18 (ssRNA)
# RNA: GGGAGUUCUACAGUCCGACGAUCACCUGACAAAAUUAAAUAUCCCUGUAAAUUAGACAAUAAGCAGCAGGCAACAAAGUCUUUGCUUUGGAAUAUGUGCCAGGAAAAGUCAUCUUGUAGACCCCAAUCAAGAGACAGUUCACACAACAGAGGAUUGAGCAUCA
# B6: chr3:32582686:32582687:-_ENSG00000144635_ENST00000273130|hu_mus|motif|central (ssRNA)
# RNA: GGGAGUUCUACAGUCCGACGAUCUCGCUGAGGGGAGGCUGGGAAGUCUUCUCCUGGCUCCACGUACUCUUGGAAGUCUCGGAUCAACUUCUGCUCCAUUUCCUUCAUCUCUUCAGGGGGGAUUUUCAGCUUGUCGACAUGUUCCAACAGAGGAUUGAGCAUCA
# B7: 204320180_204320300_1521_CDS_ENSG00000173166_ENST00000319170|human|control|control (ssRNA)
# RNA: GGGAGUUCUACAGUCCGACGAUCAUAGUAGAUACCAGAUGCUCGCAAGAGAAAAUAACGCUUUUUCCAGGACUUCUUGCCAUCAUCCUUCAACCAAAGGACUCCUUCAAUUUCUGGUACAGUUACAGAACUUCCACAAAAACACAACAGAGGAUUGAGCAUCA
# B8: chr17:3197573:3197574:+_ENSMUSG00000046201_ENSMUST00000076734|mus_mus|motif|central (ssRNA)
# RNA: GGGAGUUCUACAGUCCGACGAUCCCUCACAAGAUUCUCCCUCAUGUCCACAGGAGGUCUUCCAAAAUGAUCCCUAGCAUCGGAUGGAGGCCUUCCAGGGCCUUCUCUGGGAUCUAGACGUCGCCCAACCACAUCCCUAACAUCCAACAGAGGAUUGAGCAUCA
# B9: chr11:77340908:77340909:-_ENSG00000074201_ENST00000525064|hu_mus|motif|central (ssRNA)
# RNA: GGGAGUUCUACAGUCCGACGAUCGUUUGGAUCCCUGGACACCGCAUGUAAACUAAUGGUGGGGUAUUCCAGUGAGAAUCCGGAUCCCGAACCAUCUAACCAGGACAGGCGGCUCUCCGCGAUGUAAAGCGUGCCGGUGCCGAGCAACAGAGGAUUGAGCAUCA
# B10: chr11:77843920:77843921:+_ENSMUSG00000037791_ENSMUST00000049167|mus_hu|motif|central (ssRNA)
# RNA: GGGAGUUCUACAGUCCGACGAUCUUUUUUAUAUACAGAAUACAGGAAAGUUUCUGUAAAGUCUAAAACAUUACAAUUACGGUGUACAUUGGUACUGGUUGUGGGGGUGGGAGGAGAGGAGGGAACCAGGGGCAGGAGGAAGAGCAACAGAGGAUUGAGCAUCA
# B11: chr5:108714765:108714766:-_ENSG00000198961_ENST00000361557|hu_hu|motif|central (ssRNA)
# RNA: GGGAGUUCUACAGUCCGACGAUCACAAGCUCCUGGAAUAUACUCUCCCUCAGAGUGAUUAUGAAGAUUUGUACUGCUUCCGGAGGUAUCCCUGCCUUCCUCACUGUGAUGUACUGCAACAAAGGAUUGACUGCUCUCAGUGGUCAACAGAGGAUUGAGCAUCA
# B12: chr3:10015032:10015033:+_ENSMUSG00000027533_ENSMUST00000029046|mus_mus|mus_mus_mus_hu_True|68_78 (ssRNA)
# RNA: GGGAGUUCUACAGUCCGACGAUCGUUUUUACCAUCACAAGUGAUGAUACAAUCUGGCUUGGCCAUGGCAGCCAUCUUUCGCAAAGCUAUUCCCACUCCUAGCUCCUUCAUGUAUUCAUCAAAGCCUUUGCUGUCCACCAGGCGCAACAGAGGAUUGAGCAUCA
# B13: 30141188_30141308_626_CDS_ENSMUSG00000075419_ENSMUST00000100219|mouse|control|control (ssRNA)
# RNA: GGGAGUUCUACAGUCCGACGAUCGAGGGCCACUGCCAUGCCAGUAGCUGCAACCACAAUGCCGAAGCGCUCGAAGUAUGGGUUCCCUGCAGUCUGGCAGCGCUCCUUCAUGACUAGCCCAAGCAAAGGCAUGACCAUGGAGGCCAACAGAGGAUUGAGCAUCA
# B14: chr7:44244176:44244177:+_ENSG00000106636_ENST00000223369|hu_mus|hu_hu_hu_mus_False|18_38 (ssRNA)
# RNA: GGGAGUUCUACAGUCCGACGAUCACUGUCGCUCCGGACGUAGACAUGGCAAAGAUACUCUUGUUCUUUGACAGAAGCUCUGCUGCCUUUCCCCGAGCGCUCCACAAUCAGUUGACUCGUGAAGGUCAUGAAUUCCUGCACACUCAACAGAGGAUUGAGCAUCA
# B15: chr9:57400063:57400064:-_ENSMUSG00000032306_ENSMUST00000034856|mus_hu|FALSE|FALSE (ssRNA)
# RNA: GGGAGUUCUACAGUCCGACGAUCCAGCCGCGCCACUUCGCUGUUGGAACCCAUCUUCCCCCAGGCAUACUGCUGCACCGCACAGGAAAGUGGGAAUACUCGCGGAGCGGCCAUGCUCGCCCCCUGCACCAGGAUUAAGCACGUCAACAGAGGAUUGAGCAUCA
# B16: chr1:100327937:100327938:+_ENSG00000162688_ENST00000361915|hu_mus|FALSE|FALSE (ssRNA)
# RNA: GGGAGUUCUACAGUCCGACGAUCCUCCUUUGCCACCCUUAGCCGGCUUUCCCACUCAUCGAAGGGUCCUAAGCACUUUGCUAAGAACGUCUGCAGAGUAACACAGUCCAAGGGUAACACGUGGUUAUCAACUCCAAUGCGUAACAACAGAGGAUUGAGCAUCA
# B17: chr1:192983433:192983434:-_ENSG00000116750_ENST00000367455|hu_hu|motif|central (ssRNA)
# RNA: GGGAGUUCUACAGUCCGACGAUCAUCACAAGGGAUUUGCAAUCACCAAAGAAGAUGCAGAUAAAAUAAACCACUCUUAAGCGGUGGAAAUUCCUAUUAAGGAAUUUUAUUAGAUUAAUAAGAAAAAUCCUUAUACCUAUUAAUCAACAGAGGAUUGAGCAUCA
# B18: 2633529_2636739_1277_3pUTR_ENSG00000140992_ENST00000342085|human|control|control (ssRNA)
# RNA: GGGAGUUCUACAGUCCGACGAUCGGAGUGUGAGGAGGAGGACGAAGACACCUGCAUGCAGCCAAACUGGCUCAGGAGAUUGUCAUAAUUGCCAUAGCAGUCCUCGUCGUCUUCCGACAUAGCCGGCAGGUAAGCGGUGAGCUUCAACAGAGGAUUGAGCAUCA
# B19: chr16:87731977:87731978:+_ENSMUSG00000025612_ENSMUST00000026703|mus_hu|FALSE|FALSE (ssRNA)
# RNA: GGGAGUUCUACAGUCCGACGAUCUGGGAUGCACUAUCAGAAUUAUUCUCCCUGACAAAUUCUUGAGUGUACUUAUAAAAGCUACUAGAAAAUAAACAAGUCCAACUAAUUUUCUCUUACAAAUAAGUCAGUGACAGAGAGAACCAACAGAGGAUUGAGCAUCA
# B20: chr2:27656205:27656206:+_ENSG00000115216_ENST00000379852|hu_mus|FALSE|FALSE (ssRNA)
# RNA: GGGAGUUCUACAGUCCGACGAUCACAGAAGUCAGGCCAGGAGCUAAAGAUGAGGAUUCUACCUUUGGGUCUGAGCCACUGCUGACUACUGUUUGGGACUCCCCUUCCGACAUGCUGGAAUGAACACUCAGCCUCCCGACUCCGCAACAGAGGAUUGAGCAUCA
# B21: 29839812_29839932_933_CDS_ENSG00000197321_ENST00000375400|human|control|control (ssRNA)
# RNA: GGGAGUUCUACAGUCCGACGAUCACCGGCACAGGUCCUGAGCCCCAUCGUCUCGGUCCCGGGGUACAGAGAACUAGCAUCUCUGCUUGACUCUUCCUGUUUGUCACUUUUUCCUCCCCGCUUCUCGACAGCAUCAGGCUCCUUCAACAGAGGAUUGAGCAUCA
# B22: chr5:54662584:54662585:+_ENSG00000039123_ENST00000230640|hu_mus|FALSE|FALSE (ssRNA)
# RNA: GGGAGUUCUACAGUCCGACGAUCAAUUUCUUCUACUCUUAGUAAGUUCAAAACCAUGUUAUAGGUCAGAUGGAAAGCACUGUUCAGAGGAUCAGCUGACCCCUUAAGCAGCUGCUUUCCAAUAGUUGGGCUCAUCUUCUCGUCCAACAGAGGAUUGAGCAUCA
# Molecular target: T1, UNK ZnF1-3
# Assay: nsRBNS (natural sequence RNA bind-n-seq); RBNS binding buffer (assumed for nsRBNS): 25 mM Tris pH 7.5, 150 mM KCl, 3 mM MgCl2, 0.01% Triton X-100, 500 ug/ml BSA, 20 U/ml SUPERase-In, 4 C; UNK is unkempt and MSI1 is Musashi-1; names of the RNAs are library labels; protein concentration not given here; high values mean tight binding
row,Binder,binding signal [enrichment R]
1,B1,1.08
2,B2,0.947
3,B3,1.07
4,B4,0.525
5,B5,1.71
6,B6,0.426
7,B7,1.26
8,B8,0.898
9,B9,0.596
10,B10,1.66
11,B11,2.2
12,B12,0.783
13,B13,0.862
14,B14,0.631
15,B15,0.829
16,B16,0.641
17,B17,0.811
18,B18,0.797
19,B19,0.615
20,B20,1.18
21,B21,1.28
22,B22,0.371
